Assay results: PubChem BioAssay (NCATS)
Some of the results follow. Further columns of the screen follow, without active or inactive calls. For some of these results: The list favours compounds with an active or inconclusive main result. Potencies come from curve fits of mixed quality, noted in brackets.

Columns and labels:
[1] = qHTS drug screen for cell cycle checkpoint inhibitors in PARPi-resistant BRCA-mutant ovarian cancer cell lines. (AID 1963452); conditions: PEO1/OlaR viability, CellTiter-Glo luminescence, 96 h
Summary of the method: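 PEO1, PEO4 and PEO1/OlaR ovarian cancer cells, 600 per well, exposed 96 h at 37C to a dilution series. Viability read by CellTiter-Glo luminescence, normalized to DMSO and empty wells; activity summarized as Z-AUC.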

[2] = qHTS for identification of novel therapeutic agents for treatment of microphthalmiaassociated transcription factor (MiT) renal cell carcinoma (RCC) (AID 1963991); conditions: CellTiter-Glo, 48 h; for z-score: stronger effect = lower value
Summary of the method: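 Viability of three TFE3-fusion renal carcinoma lines measured by CellTiter-Glo after 48 h treatment with each of 1912 compounds at 11 concentrations. Responses scaled between DMSO (100%) and empty wells (0%) before curve fitting.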

[3] = qHTS Assay for Modulators of Human Peripheral Myelin Protein 22 (PMP22) Expression/Activity (AID 1967); conditions: Cell-based PMP22 reporter, dual-color luciferase ratio; measured here: red reporter channel AC50; EF-alpha promoter control reporter in MSC80 mouse Schwann cells
Summary of the method: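 MSC80 mouse Schwann cells stably carrying Pmp22 promoter–green click beetle luciferase plus EF-alpha–red luciferase control were dosed for 24h at 37 °C. Dual-colour luminescence was filter-overlap corrected; %Activity came from green/red ratio versus untreated cells.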

[4] = qHTS assay for small molecule antagonists of peroxisome proliferator-activated receptor gamma signaling (AID 588537); conditions: HEK293 PPARg-UAS-bla, beta-lactamase ratio, antagonist mode; measured here: W460 blue channel
Summary of the method: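 PPAR-gamma-UAS-bla HEK293 cells (3000/well, 1% charcoal/dextran-stripped FBS) were preincubated 6-6.5 h at 37 C, given titrated compounds, then stimulated with 50 nM rosiglitazone for 16 h. Beta-lactamase activity was read with CCF4 dye; IC50 came from Hill fits.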

[5] = TFE3-RCC UOK109 viability, measured here: UOK109 Z-AUC
[6] = TFE3-RCC viability, measured here: UOK124 Z-AUC
[7] = TFE3-RCC viability, measured here: UOK124 cell viability
[8] = TFE3-RCC viability, measured here: UOK145 Z-AUC
[9] = TFE3-RCC viability, measured here: UOK145 cell viability
[10] = measured here: PEO1 parental viability
Tags give direction and shape of the fitted curve.

SMILES | AC50 ([1]; measured here: PEO4 viability) | z-score [2, 5] | z-score [2, 6] | AC50 [2, 7] | z-score [2, 8] | AC50 [2, 9] | AC50 [1, 10] | AC50 [3] | AC50 [4]
CCc1cc2c(cc1N1CCC(N3CCOCC3)CC1)C(C)(C)c1[nH]c3cc(C#N)ccc3c1C2=O | 1510 nM [falling, partial curve, poor fit] | -0.166 | 0.45 | 8.33 nM [rising, full curve, poor fit] | -1.06 | 4.69 nM [rising, full curve] |  |  | 
CN[C@@H](C)C(=O)N[C@H]1CCCC[C@H]2CC[C@@H](C(=O)N[C@@H](c3ccccc3)c3cn(CCCCc4ccc(CCCCn5cc([C@@H](NC(=O)[C@@H]6CC[C@@H]7CCCC[C@H](NC(=O)[C@H](C)NC)C(=O)N76)c6ccccc6)nn5)cc4)nn3)N2C1=O | 17400 nM [falling, partial curve] | -0.668 | -0.994 | 935 nM [falling, partial curve, poor fit] | 0.152 | 1660 nM [falling, full curve] |  |  | 
Cc1ccnc(NS(=O)(=O)c2ccc(NC(=O)Nc3ccc(S(=O)(=O)Nc4nccc(C)n4)cc3)cc2)n1 |  | 0.544 | -0.0954 | 1320 nM [falling, partial curve, poor fit] | 0.43 | 20900 nM [falling, partial curve, poor fit] | 49 nM [falling, full curve, poor fit] |  | 
S=C(NCc1ccc2c(c1)OCO2)N1CCN(c2ncnc3c2oc2ccccc23)CC1 |  | -0.407 | 0.17 | 2700 nM [falling, full curve] | 0.0638 | 42900 nM [falling, partial curve, poor fit] | 549 nM [falling, full curve] |  | 
NC(=O)c1ccc2nc(-c3ccc(Oc4ccc(Cl)cc4)cc3)[nH]c2c1 | 6920 nM [falling, partial curve] | -0.281 | 0.265 | 16600 nM [falling, partial curve] | 0.038 | 2640 nM [falling, partial curve] |  |  | 
CCCCCNC(=O)N1CCC(CN(Cc2ccc(Cl)cc2)Cc2ccc([N+](=O)[O-])s2)C1 (configuration not stated) |  | -0.0613 | 0.354 | 23500 nM [falling, partial curve] | 0.142 | 20900 nM [falling, single point] | 43.6 nM [rising, full curve, poor fit] |  | 
CC(C)c1cc(C(C)C)c(CC(=O)NS(=O)(=O)Oc2c(C(C)C)cccc2C(C)C)c(C(C)C)c1 | 6920 nM [falling, partial curve] | 0.00666 | 0.684 | 26400 nM [falling, single point] | 0.372 | 20900 nM [falling, partial curve] |  |  | 
COc1ccc2[nH]cc(CCNC(C)=O)c2c1 |  | 0.276 | 0.533 |  | -2.63 | 41.8 nM [rising, full curve] | 8.7 nM [rising, full curve, poor fit] | 84900 nM [falling, single point] | 50100 nM [rising, single point]
Cc1ccn(-c2ccc(-c3ncco3)cc2)c(=O)c1-c1ccc2nc(N)ncc2c1 |  | -0.55 | -0.939 | 13200 nM [falling, partial curve, poor fit] | 0.471 | 13200 nM [falling, partial curve] | 24500 nM [falling, single point] |  | 
O=C(NCc1ccccc1)c1csc(Nc2ccncn2)n1 |  | 0.103 | -0.0194 | 20900 nM [falling, partial curve] | 0.571 | 10500 nM [falling, partial curve, poor fit] | 2750 nM [falling, partial curve, poor fit] |  | 
CCC(=O)N1CCN(c2ccc(-n3c(=O)ccc4cnc5ccc(-c6cnc7ccccc7c6)cc5c43)cc2C(F)(F)F)CC1 |  |  |  | 14.8 nM [falling, full curve] |  | 16.6 nM [falling, full curve] |  |  | 
Cc1ccc(NC(=O)C2(c3ccc4c(c3)OC(F)(F)O4)CC2)nc1-c1cccc(C(=O)O)c1 |  |  |  | 118 nM [falling, full curve] |  | 105 nM [falling, full curve] |  |  | 
C[C@@H]1O[C@@H](O[C@H]2CC[C@@]3(C)[C@H](CC[C@@H]4[C@H]3C[C@@H](O)[C@]3(C)[C@@H](C5=CC(=O)OC5)CC[C@]43O)C2)C[C@H](O)[C@@H]1O[C@H]1C[C@H](O)[C@H](O[C@H]2C[C@H](O)[C@@H](O)[C@@H](C)O2)[C@H](C)O1 (stereo in doubt) |  |  |  | 340 nM [falling, full curve] |  | 215 nM [falling, full curve] |  |  | 
